# Several values for one entry are separate records, joined by “and”; a condition that tells them apart may be missing. Identical values can stand only once. Counter-ions that a name gives are not always drawn. ± gives the standard deviation of the averaged measurements. Over roughly 3,100 compounds, “mean cytoplasmic OPP incorporation (global translation) relative to DMSO” has its median near 100; the lowest 2% begin near 56. The list shows a part of the results.
# Tested on: U2OS
# Assay: mean cytoplasmic OPP incorporation (global translation) relative to DMSO (% of DMSO); higher = more protein synthesis
# Conditions: 10 µM; 24 h
# Protocol: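 Primary image-based screen in U2OS cells: compounds at 10 uM for 24 h, then a 1 h o-propargyl-puromycin (OPP) pulse, click labelling, and high-throughput microscopy. Mean cytoplasmic OPP intensity and nuclei count were normalised to DMSO wells within each plate (DMSO = 100) and averaged over triplicate plates.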
row,Compound,mean cytoplasmic OPP incorporation
1,Cc1cc(C(C)(C)CC(C)(C)C)ccc1OCCOCC[N+](C)(C)Cc1ccccc1 [Methyl benzethonium chloride],108
2,C[C@H](CCC(=O)NCC(=O)O)[C@H]1CC[C@H]2[C@@H]3CC[C@@H]4C[C@H](O)CC[C@]4(C)[C@H]3C[C@H](O)[C@]12C [Glycodeoxycholic acid],102
3,CN(C)CCCN1c2ccccc2CCc2ccc(Cl)cc21 [Clomipramine hydrochloride],106 ± 7.5
4,CO[C@@]1(NC(=O)C2SC(=C(C(N)=O)C(=O)O)S2)C(=O)N2C(C(=O)O)=C(CSc3nnnn3C)CS[C@@H]21 (some centres not stated) [Cefotetan],100
5,COc1cc(Br)c(S(=O)(=O)Nc2ccc(Cl)c(O[C@@H]3CCN(C)C3)c2)cc1OC,106
6,CCN(CC)CCOC(=O)C1(c2ccc([N+](=O)[O-])cc2)CCCC1 [Nitrocaramiphen hydrochloride],93.8 ± 2.4
7,Clc1ccccc1CN1CCc2sccc2C1 [Ticlopidine hydrochloride],97.5
8,Nc1ccc(O)c(C(=O)O)c1 [Mesalamine],102
9,N#Cc1ccc(NCCNCC(=O)N2CCC[C@H]2C#N)nc1 [NVP DPP 728 dihydrochloride],90.3
10,CN(C)c1nc(N)c(C(=O)Nc2cccnc2)nc1Cl [ACDPP hydrochloride],97.2
11,COc1cc2c(cc1O)CC[C@@H]1[C@@H]2CC[C@]2(C)[C@@H](O)CC[C@@H]12 [2-Methoxyestradiol],81.5
12,COC(=O)C1=C(C)NC(C)=C(C(=O)OC)C1c1ccccc1[N+](=O)[O-] [Nifedipine],92.7 ± 5.1
13,C#C[C@]1(O)CC[C@H]2[C@@H]3CCC4=CC(=O)CC[C@@H]4[C@H]3CC[C@@]21C [Norethindrone],87.3
14,C#C[C@]1(O)CC[C@H]2[C@@H]3CCC4=CC(=O)CC[C@@H]4[C@H]3CC[C@@]21C [Norethindrone (Norethisterone)],99.2
15,Cc1cc2c(cc1C1(c3ccc(C(=O)O)cn3)CC1)C(C)(C)CCC2(C)C,109
16,CO[C@@]1(NC(=O)C(C(=O)O)c2ccc(O)cc2)C(=O)N2C(C(=O)O)=C(CSc3nnnn3C)CO[C@@H]21 (some centres not stated) [Moxalactam disodium salt],103
17,O=C(NC[C@H](O)CN1CCc2ccccc2C1)c1ccnc(NC2CCC2)c1,107
18,CN(CCc1ccc(Cl)c(Cl)c1)CC(O)COc1ccc(NS(C)(=O)=O)cc1 (configuration not stated),102 and 107
19,COc1ccc([C@@H]2CNC(=O)C2)cc1OC1CCCC1 [(R)-(-)-Rolipram],98.9
20,NC(=O)c1ccc2nc(-c3ccc(Oc4ccc(Cl)cc4)cc3)[nH]c2c1,98.1
21,CC(=O)NCC(=O)N1[C@@H]2CC[C@H]1c1ccc(Nc3ncc(C(F)(F)F)c(NC4CCC4)n3)cc12,71.1
22,Nc1ccc(S(=O)(=O)Nc2ncccn2)cc1 [Sulfadiazine],99.4
23,CC(C)[C@H](C(=O)Nc1ccc(C(=O)NO)cc1)c1ccccc1,53
24,C#C[C@]1(OC(C)=O)CC[C@H]2[C@@H]3CCC4=C[C@@H](OC(C)=O)CC[C@@H]4[C@H]3CC[C@@]21C [Ethynodiol diacetate],99.36 ± 0.7
25,CCOC(=O)C=Cc1ccc(O)c(OC)c1 [Ferulic acid ethylester],103
26,N[C@H]1CCN(O)C1=O,98.7

row,Compound,mean cytoplasmic OPP incorporation
1,Oc1ccc(Nc2nc(-c3ccc(Cl)cc3)cs2)cc1,87.5 ± 3.6
2,N#Cc1ccc2[nH]c(O)c(-c3ccc(CN4CCOCC4)cn3)c2c1,109
3,COc1cc2ncnc(Nc3ccc(Cl)cc3F)c2cc1OC,97.5 and 93.4
4,CO[C@H]1C[C@@H]2CC[C@@H](C)[C@@](O)(O2)C(=O)C(=O)N2CCCC[C@H]2C(=O)O[C@H]([C@H](C)C[C@@H]2CC[C@@H](O)[C@H](OC)C2)CC(=O)[C@H](C)/C=C(\C)[C@@H](O)[C@@H](OC)C(=O)[C@H](C)C[C@H](C)/C=C/C=C/C=C/1C [Rapamycin],94.8
5,CO[C@H]1C[C@@H]2CC[C@@H](C)[C@@](O)(O2)C(=O)C(=O)N2CCCC[C@H]2C(=O)O[C@H]([C@H](C)C[C@@H]2CC[C@@H](O)[C@H](OC)C2)CC(=O)[C@H](C)/C=C(\C)[C@@H](O)[C@@H](OC)C(=O)[C@H](C)C[C@H](C)/C=C/C=C/C=C/1C [Rapamycin (Sirolimus)],93.7 ± 1.3
6,Cc1cccc(CCN2CCC(C(=O)c3ccc(NS(C)(=O)=O)cc3)CC2)n1 [E-4031 dihydrochloride],95.9
7,N[C@@H]1CCCN(c2c(/C=C3\SC(=O)NC3=O)cccc2-c2ccccc2)C1,99.8
8,Cc1[nH]c(/C=C2\C(=O)Nc3ccccc32)c(C)c1CCC(=O)O,102
9,CC(=O)N1CCN(c2ccc(OCC3COC(Cn4ccnc4)(c4ccc(Cl)cc4Cl)O3)cc2)CC1 (configuration not stated) [Ketoconazole],114 ± 2.2
10,CC1=C(C)C(=O)C(CCCCC#CCCCC#CCO)=C(C)C1=O,101
11,C#C[C@]1(O)CC[C@H]2[C@@H]3CCc4cc(OC)ccc4[C@H]3CC[C@@]21C [Ethynylestradiol 3-methyl ether],104
12,C#C[C@]1(O)CC[C@H]2[C@@H]3CCc4cc(OC)ccc4[C@H]3CC[C@@]21C [Mestranol],103
13,C1=N/C2=N/c3ccc(OCCN4CCCC4)c(c3)COC/C=C/COCc3cccc(c3)C(=C1)N2 [Pacritinib (SB1518)],73.3
14,COc1cc(C=O)ccc1O [Vanillin],101
15,CN(C)CCCCSC(=N)N,99.4
16,COc1ccc2cccc(CCNC(C)=O)c2c1 [Agomelatine],89.6
17,CCCCCCCCCCCCCCCC[N+](C)(C)CCN(Cc1ccc(OC)cc1)c1ncccn1 [Thonzonium bromide],95.6
18,O=C(O)P(=O)(O)O [Foscarnet Sodium],100
19,CC(C)(C)NS(=O)(=O)c1cncc(-c2cc(F)c3nc(N)nn3c2)c1,103
20,CCN(CC)CCCC(C)Nc1c2ccc(Cl)cc2nc2ccc(OC)cc12 (configuration not stated) [Quinacrine dihydrochloride dihydrate],29.5
21,COC(=O)[C@H]1[C@H]2C[C@@H]3c4[nH]c5cc(OC)ccc5c4CCN3C[C@H]2C[C@@H](OC(=O)c2cc(OC)c(OC)c(OC)c2)[C@@H]1OC [Reserpine],101 ± 4.6
22,COc1cc2c(cc1OC)-c1cc3ccc(OC)c(OC)c3c[n+]1CC2 [Palmatine chloride],94.4
23,CNC(=C[N+](=O)[O-])NCCSCc1ccc(CN(C)C)o1 [Ranitidine hydrochloride],93.5 ± 16
24,C=CCc1ccc(O)c(-c2ccc(O)c(CC=C)c2)c1 [Honokiol],102 ± 6.4
25,CC(C)C[C@H](NC(=O)[C@@H](O)[C@H](N)Cc1ccccc1)C(=O)O [Bestatin],99.6
26,CN(C)CCCSc1ccccc1NC(=O)/C=C/c1ccccc1 [Cinanserin hydrochloride],99.1

row,Compound,mean cytoplasmic OPP incorporation
1,CSc1cccc(Nc2ncc3cc(-c4c(Cl)cccc4Cl)c(=O)n(C)c3n2)c1,116
2,OCc1ccc(-c2ccc(-c3ccc(CO)s3)o2)s1,87.7
3,O=c1c(-c2ccc(O)cc2)coc2cc(O)cc(O)c12 [Genistein],100 ± 3.9
4,CCOC(=O)Nc1ccc2c(c1)N(C(=O)CCN1CCOCC1)c1ccccc1S2 [Moricizine hydrochloride],95.6
5,C[C@H](NC(=O)Cc1cc(F)cc(F)c1)C(=O)N[C@@H]1C(=O)N(C)c2ccccc2-c2ccccc21,117
6,Clc1cc2c(NC3CCCC3)nnc(-c3ccncc3)c2cc1Cl,114
7,O=C(O)c1ccc(Nc2ncc3c(n2)-c2ccc(Cl)cc2C(c2c(F)cccc2F)=NC3)cc1,92.1 ± 2.5
8,CC(=O)NNC(=O)N1Cc2ccccc2Oc2ccc(Cl)cc21,99.2
9,OC1CCC(Nc2nc(-c3ccccc3)nc3[nH]ccc23)CC1 (configuration not stated),113
10,N[C@@H]1CN(c2c(F)cc3c(=O)c(C(=O)O)cn([C@@H]4C[C@@H]4F)c3c2Cl)CC12CC2 [Sitafloxacin hydrate],100
11,CNC[C@H](O)c1cccc(O)c1 [Phenylephrine HCl],101
12,CCn1cc(-c2ccnc3[nH]c(-c4cccc(CN(C)C)c4)cc23)c(-c2ccc(NC(=O)N(C)C)cc2)n1,93
13,CCOc1ccn(-c2ccc(F)cc2)c(=O)c1C(=O)Nc1ccc(Oc2ccnc(N)c2Cl)c(F)c1,104
14,[Cl-].[Li+] [Lithium Chloride],105
15,Cc1nc(Nc2n[nH]c3c2CN(C(=O)N[C@H](CN(C)C)c2ccccc2)C3(C)C)c2sccc2n1,45.5
16,CCCCCCN(CCCCCC)C(=O)Cc1c(-c2ccc(F)cc2)[nH]c2ccccc12,109
17,N#C[C@@H]1CCCN1C(=O)CNC12CC3CC(CC(O)(C3)C1)C2 [Vildagliptin (LAF-237)],102
18,CC(C)C[C@H](NC(=O)CNC(=O)c1cc(Cl)ccc1Cl)B(O)O,64.4
19,O=C(O[C@@H]1Cc2c(O)cc(O)cc2O[C@@H]1c1cc(O)c(O)c(O)c1)c1cc(O)c(O)c(O)c1 [Epigallocatechin gallate],103 ± 8.2
20,Nc1ccc(S(=O)(=O)NC(=O)c2ccccc2)cc1 [Sulfabenzamide],106
21,C=C(CC)C(=O)c1ccc(OCC(=O)O)c(Cl)c1Cl [Ethacrynic acid],103
22,CCCC[P+](CCCC)(CCCC)Cc1ccc(NC(=O)C(Cc2ccc3ccccc3c2)NC(=NC2CCCCC2)NC2CCCCC2)cc1 (configuration not stated),94.7
23,CCCCCCCCCCCCCCCC(=O)O[C@H](CC(=O)O)C[N+](C)(C)C (racemic) [(±)-Palmitoylcarnitine chloride],104
24,CCN(CC)CCCC(C)Nc1ccnc2cc(Cl)ccc12 (configuration not stated) [Chloroquine diphosphate],105
25,CCN(CC)CCCC(C)Nc1ccnc2cc(Cl)ccc12 (configuration not stated) [Chloroquine],107

# Source: the supplement of paper PMC8183993
